# Results taken from the supplement of paper PMC4604168 (melanoma cell lines).
# Some of the results follow. Single values are uncertain, as repeats are few or missing.
# System: MeWo
# Assay: cell count relative to DMSO control; melanoma cells; higher = more viable cells
# Conditions: library dose: standard library concentration; 72 h
# 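Further: cells treated in 1,536-well plates, then fixed and DAPI-stained, with nuclei counted from automated high-throughput microscope images.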
row,Structure (SMILES),cell count [%]
1,"CN1CCN(c2ccc3nc(-c4c(N)c5c(F)cccc5[nH]c4=O)[nH]c3c2)CC1 [Dovitinib] + O=C(O)C(=O)Nc1sc2c(c1C(=O)O)CCNC2 [TCS401] (first compound 0.5 µM, partner dose 8.33333 µM)",56.1
2,"C[C@@H](Oc1cc(-c2cnn(C3CCNCC3)c2)cnc1N)c1c(Cl)ccc(F)c1Cl [Crizotinib] + Cn1nnc2c(C(N)=O)ncn2c1=O [temozolomide] (first compound 1 µM, partner dose 10 µM)",85.8
3,"C=CCNC1=C2C[C@@H](C)C[C@H](OC)[C@H](O)[C@@H](C)/C=C(\C)[C@H](OC(N)=O)[C@@H](OC)/C=C\C=C(/C)C(=O)NC(=CC1=O)C2=O [Tanespimycin] + OCCn1cc(-c2cnc3nnn(Cc4ccc5ncccc5c4)c3n2)cn1 [PF04217903] (first compound 0.01 µM, partner dose 5 µM)",59.8
4,"C[C@@H](Oc1cc(-c2cnn(C3CCNCC3)c2)cnc1N)c1c(Cl)ccc(F)c1Cl [Crizotinib] + C=CCn1c(=O)c2cnc(Nc3ccc(N4CCN(C)CC4)cc3)nc2n1-c1cccc(C(C)(C)O)n1 [MK1775] (first compound 1 µM, partner dose 0.1 µM)",47.9
5,"C=CCNC1=C2C[C@@H](C)C[C@H](OC)[C@H](O)[C@@H](C)/C=C(\C)[C@H](OC(N)=O)[C@@H](OC)/C=C\C=C(/C)C(=O)NC(=CC1=O)C2=O [Tanespimycin] + OCc1c[nH]c2ccccc12 [Indole-3-carbinol] (first compound 0.01 µM, partner dose 4 µM)",79.2
6,"CS(=O)(=O)CCNCc1ccc(-c2ccc3ncnc(Nc4ccc(OCc5cccc(F)c5)c(Cl)c4)c3c2)o1 [lapatinib] + NC(=O)Nc1cc(-c2cccc(F)c2)sc1C(=O)N[C@H]1CCCNC1 [AZD7762] (first compound 4 µM, partner dose 0.1 µM)",85.4
7,"CN1CCN(c2ccc3nc(-c4c(N)c5c(F)cccc5[nH]c4=O)[nH]c3c2)CC1 [Dovitinib] + Nc1ncn([C@H]2C[C@H](O)[C@@H](CO)O2)c(=O)n1 [decitabine] (first compound 0.5 µM, partner dose 0.5 µM)",37.3
8,"CN1CCN(c2ccc3nc(-c4c(N)c5c(F)cccc5[nH]c4=O)[nH]c3c2)CC1 [Dovitinib] + COc1cc2ncnc(Nc3ccc(Oc4ccccc4)cc3)c2cc1OC [SrcI1] (first compound 0.5 µM, partner dose 10 µM)",50.9
9,"CNC(=O)c1cc(Oc2ccc(NC(=O)Nc3ccc(Cl)c(C(F)(F)F)c3)cc2)ccn1 [sorafenib] + COc1cc2ncnc(Nc3ccc(Oc4ccccc4)cc3)c2cc1OC [SrcI1] (first compound 2 µM, partner dose 10 µM)",62.7
10,"CS(=O)(=O)CCNCc1ccc(-c2ccc3ncnc(Nc4ccc(OCc5cccc(F)c5)c(Cl)c4)c3c2)o1 [lapatinib] + COc1ccc(COc2ccc(Cc3cnc(N)nc3N)cc2OC)cc1 [GW2580] (first compound 4 µM, partner dose 5 µM)",69.5
11,"CN1CCN(c2ccc3nc(-c4c(N)c5c(F)cccc5[nH]c4=O)[nH]c3c2)CC1 [Dovitinib] + COc1ccc(COc2ccc(Cc3cnc(N)nc3N)cc2OC)cc1 [GW2580] (first compound 0.5 µM, partner dose 5 µM)",46.1
12,"C[C@@H](Oc1cc(-c2cnn(C3CCNCC3)c2)cnc1N)c1c(Cl)ccc(F)c1Cl [Crizotinib] + c1cc(-c2cnn3cc(-c4ccc(OCCN5CCCCC5)cc4)cnc23)ccn1 [Dorsomorphin] (first compound 1 µM, partner dose 2 µM)",51.3
13,"C=CCNC1=C2C[C@@H](C)C[C@H](OC)[C@H](O)[C@@H](C)/C=C(\C)[C@H](OC(N)=O)[C@@H](OC)/C=C\C=C(/C)C(=O)NC(=CC1=O)C2=O [Tanespimycin] + Cc1cc([N+](=O)[O-])ccc1NS(=O)(=O)c1cc(Cl)ccc1Cl [FH535] (first compound 0.01 µM, partner dose 5 µM)",75.8
14,"C=CCNC1=C2C[C@@H](C)C[C@H](OC)[C@H](O)[C@@H](C)/C=C(\C)[C@H](OC(N)=O)[C@@H](OC)/C=C\C=C(/C)C(=O)NC(=CC1=O)C2=O [Tanespimycin] + C[C@]1(c2nc3c(C(N)=O)cccc3[nH]2)CCCN1 [Veliparib] (first compound 0.01 µM, partner dose 7 µM)",83.5

# System: RPMI7951
# Assay: as above
# Conditions: library dose: standard library concentration; 72 h
row,Structure (SMILES),cell count [%]
1,"C=CCNC1=C2C[C@@H](C)C[C@H](OC)[C@H](O)[C@@H](C)/C=C(\C)[C@H](OC(N)=O)[C@@H](OC)/C=C\C=C(/C)C(=O)NC(=CC1=O)C2=O [Tanespimycin] + NC(=O)Nc1cc(-c2cccc(F)c2)sc1C(=O)N[C@H]1CCCNC1 [AZD7762] (first compound 0.01 µM, partner dose 0.1 µM)",14.9
2,"CS(=O)(=O)CCNCc1ccc(-c2ccc3ncnc(Nc4ccc(OCc5cccc(F)c5)c(Cl)c4)c3c2)o1 [lapatinib] + C=C(c1ccc(C(=O)O)cc1)c1cc2c(cc1C)C(C)(C)CCC2(C)C [Bexarotene] (first compound 4 µM, partner dose 10 µM)",41.3
3,"CN1CCN(c2ccc3nc(-c4c(N)c5c(F)cccc5[nH]c4=O)[nH]c3c2)CC1 [Dovitinib] + Cn1cncc1[C@@](N)(c1ccc(Cl)cc1)c1ccc2c(c1)c(-c1cccc(Cl)c1)cc(=O)n2C [tipifarnib] (first compound 0.5 µM, partner dose 0.05 µM)",55.5
4,"CS(=O)(=O)CCNCc1ccc(-c2ccc3ncnc(Nc4ccc(OCc5cccc(F)c5)c(Cl)c4)c3c2)o1 [lapatinib] + Cn1c(Nc2ccc(C(F)(F)F)cc2)nc2cc(Oc3ccnc(-c4ncc(C(F)(F)F)[nH]4)c3)ccc21 [CHIR265] (first compound 4 µM, partner dose 0.4 µM)",31.6
5,"CS(=O)(=O)CCNCc1ccc(-c2ccc3ncnc(Nc4ccc(OCc5cccc(F)c5)c(Cl)c4)c3c2)o1 [lapatinib] + O=C(O)c1ccc2c(c1)nc(Nc1cccc(Cl)c1)c1ccncc12 [CX4945] (first compound 4 µM, partner dose 2 µM)",24.5
6,"CNC(=O)c1cc(Oc2ccc(NC(=O)Nc3ccc(Cl)c(C(F)(F)F)c3)cc2)ccn1 [sorafenib] + COc1ccc2c(c1)CCC1C2CCC2(C)C(NCCCCCCN3C(=O)C=CC3=O)CCC12 [U73122] (first compound 2 µM, partner dose 2 µM)",22.7
7,"CNC(=O)c1cc(Oc2ccc(NC(=O)Nc3ccc(Cl)c(C(F)(F)F)c3)cc2)ccn1 [sorafenib] + c1cc(-c2cnn3cc(-c4ccc(OCCN5CCCCC5)cc4)cnc23)ccn1 [Dorsomorphin] (first compound 2 µM, partner dose 2 µM)",47.7
8,"C[C@@H](Oc1cc(-c2cnn(C3CCNCC3)c2)cnc1N)c1c(Cl)ccc(F)c1Cl [Crizotinib] + CC(C)CCN1c2nc(Nc3cc(F)c(O)c(F)c3)ncc2N(C)C(=O)C1C [BID1870] (first compound 1 µM, partner dose 1 µM)",72
9,"C[C@@H](Oc1cc(-c2cnn(C3CCNCC3)c2)cnc1N)c1c(Cl)ccc(F)c1Cl [Crizotinib] + O=C(O)c1ccc2c(c1)nc(Nc1cccc(Cl)c1)c1ccncc12 [CX4945] (first compound 1 µM, partner dose 2 µM)",56.8
10,"C[C@@H](Oc1cc(-c2cnn(C3CCNCC3)c2)cnc1N)c1c(Cl)ccc(F)c1Cl [Crizotinib] + CN(C)S(=O)(=O)c1ccc2c(c1)/C(=C/c1cc3c([nH]1)CCCC3)C(=O)N2 [SU6656] (first compound 1 µM, partner dose 2 µM)",48.2
11,"CNC(=O)c1cc(Oc2ccc(NC(=O)Nc3ccc(Cl)c(C(F)(F)F)c3)cc2)ccn1 [sorafenib] + CC(=O)c1c(C)c2cnc(Nc3ccc(N4CCNCC4)cn3)nc2n(C2CCCC2)c1=O [palbociclib] (first compound 2 µM, partner dose 0.2 µM)",51.3
12,"CNC(=O)c1cc(Oc2ccc(NC(=O)Nc3ccc(Cl)c(C(F)(F)F)c3)cc2)ccn1 [sorafenib] + C=CCn1c(=O)c2cnc(Nc3ccc(N4CCN(C)CC4)cc3)nc2n1-c1cccc(C(C)(C)O)n1 [MK1775] (first compound 2 µM, partner dose 0.1 µM)",67.6
13,"CN1CCN(c2ccc3nc(-c4c(N)c5c(F)cccc5[nH]c4=O)[nH]c3c2)CC1 [Dovitinib] + CN(NC(=O)CC(=O)NN(C)C(=S)c1ccccc1)C(=S)c1ccccc1 [STA4783] (first compound 0.5 µM, partner dose 0.03 µM)",76.7
14,"C[C@@H](Oc1cc(-c2cnn(C3CCNCC3)c2)cnc1N)c1c(Cl)ccc(F)c1Cl [Crizotinib] + Clc1ccc(Nc2nnc(Cc3ccncc3)c3ccccc23)cc1 [vatalanib] (first compound 1 µM, partner dose 10 µM)",56.8
15,"C=CCNC1=C2C[C@@H](C)C[C@H](OC)[C@H](O)[C@@H](C)/C=C(\C)[C@H](OC(N)=O)[C@@H](OC)/C=C\C=C(/C)C(=O)NC(=CC1=O)C2=O [Tanespimycin] + CN(NC(=O)CC(=O)NN(C)C(=S)c1ccccc1)C(=S)c1ccccc1 [STA4783] (first compound 0.01 µM, partner dose 0.03 µM)",25.7
